From patent US20220177596A1 (Bristol-Myers Squibb, published 2022)
Values belong to the binder of their own block, whether it stands above or below them.

What was measured:
human-CD40 monomer = molecular target: T1, human-CD40 monomer (human, UniProt P25942 partial chain, limits assumed); experiment: SPR, Ab captured on protein A, CD40 monomer analyte
T1 construct: also called hCD40-monomer; human-CD40-monomer protein
Source text: Based on the supernatant screening SPR data and bias towards constructs with fewer framework back-mutations, a subset of humanized Y1238 antibodies were selected for expression, purification, and further characterization. Two of these antibodies (i.e., Y1238-hz1 and Y1238-hz2) were formatted with P238K and N297A isotypes (i.e., SEQ ID NOS: 39, 40, 42, and 43 for heavy chains; see TABLE 15 for light chains) and tested for CD40 and FcgR binding by SPR. […] The Fc domain is underlined.

[1] = molecular target: human CD40 on primary human cells (tonsillar B cells, immature dendritic cells) (human, UniProt P25942 21-277); experiment: cell-based or functional assay

Chain of human-CD40 monomer (P25942 21-193 limits assumed): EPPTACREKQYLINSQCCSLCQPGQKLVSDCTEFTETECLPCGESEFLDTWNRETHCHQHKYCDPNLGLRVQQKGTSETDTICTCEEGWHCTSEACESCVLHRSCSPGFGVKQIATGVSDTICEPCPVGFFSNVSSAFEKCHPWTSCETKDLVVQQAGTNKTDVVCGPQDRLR

Kd (human-CD40 monomer): 5 nM | koff (human-CD40 monomer): 0.00039 s⁻¹ | kon (human-CD40 monomer): 78000 M⁻¹ s⁻¹ | IC50 for inhibition of proliferation of B cells, CD40L Trimer [1]: 0.0031 µg/mL | IC50 for inhibition of proliferation of B cells, CHO CD40L [1]: 0.032 µg/mL
B1: Y1238-hz1-P238K (antibody, human IgG1, kappa)
heavy: QVQLVQSGAEVKKPGASVKVSCKASGYAFTNYLIEWVRQAPGQGLEWMGVINPGSGGTNYNEKFKGRVTMTRDTSISTAYMELSRLRSDDTAVYYCARSQLGRRFDYWGQGTLVTVSS[omitted - human IgG1 constant region with P238K (EU numbers)]
light: DIQMTQSPSSLSASVGDRVTITCKASQDVRTGVAWYQQKPGKAPKLLIYSASYRNTGVPSRFSGSGSGTDFTFTISSLQPEDIATYYCQQHYSPPYTFGGGTKVEIKRTVAAPSVFIFPPSDEQLKSGTASVVCLLNNFYPREAKVQWKVDNALQSGNSQESVTEQDSKDSTYSLSSTLTLSKADYEKHKVYACEVTHQGLSSPVTKSFNRGEC
notes: Humanized Y1238

Kd (human-CD40 monomer): 5 nM | koff (human-CD40 monomer): 0.00039 s⁻¹ | kon (human-CD40 monomer): 80000 M⁻¹ s⁻¹ | IC50 for inhibition of proliferation of B cells, CD40L Trimer [1]: 0.0031 µg/mL | IC50 for inhibition of proliferation of B cells, CHO CD40L [1]: 0.035 µg/mL
B2: Y1238-hz1-N297A (antibody, human IgG1, kappa)
heavy: QVQLVQSGAEVKKPGASVKVSCKASGYAFTNYLIEWVRQAPGQGLEWMGVINPGSGGTNYNEKFKGRVTMTRDTSISTAYMELSRLRSDDTAVYYCARSQLGRRFDYWGQGTLVTVSSASTKGPSVFPLAPSSKSTSGGTAALGCLVKDYFPEPVTVSWNSGALTSGVHTFPAVLQSSGLYSLSSVVTVPSSSLGTQTYICNVNHKPSNTKVDKRV[omitted - human IgG1 Fc with changes]
light: B1 light
notes: Humanized Y1238
